# In the supplement of paper PMC4604168 (melanoma cell lines):
# Some of the results follow. Repeats are few or missing, and single values can be far off.
# Experiments:
# Assay in all cases: cell count relative to DMSO control; melanoma cells; higher = more viable cells
# Settings in all cases: library dose: low library concentration; 72 h
# [1] = system: MZ2-MEL
# [2] = system: MeWo
# [3] = system: RPMI7951
# [4] = system: RVH-421
# [5] = system: SkMel28
# [6] = system: SkMel30
# [7] = system: SkMel5
# [8] = system: UACC257
# [9] = system: UACC62
# [10] = system: SkMel2
# 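Note: cell number obtained by counting DAPI-stained nuclei in high-throughput microscope images with image analysis software, screen run in 1,536-well plates.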
SMILES,cell count [1],cell count [2],cell count [3],cell count [4],cell count [5],cell count [6],cell count [7],cell count [8],cell count [9],cell count [10]
"C[C@@H]1CCN(C(=O)CC#N)C[C@@H]1N(C)c1ncnc2[nH]ccc12 + COc1ccc(-c2ccc3c(N4CCOCC4)nc(N4C[C@@H](C)O[C@@H](C)C4)nc3n2)cc1CO [KU0063794] (first compound 1 µM, partner dose 0.02 µM)",95.2%,86.1%,91.9%,118%,82.5%,83.3%,94.7%,91%,91%,
"CC1(C)NC(=O)N(c2ccc([N+](=O)[O-])c(C(F)(F)F)c2)C1=O [nilutamide] + COc1ccc(COc2ccc(Cc3cnc(N)nc3N)cc2OC)cc1 [GW2580] (first compound 1 µM, partner dose 1 µM)",100%,104%,95%,93.6%,72.3%,110%,100%,96.4%,109%,
"O=c1[nH]nc(Sc2ncc([N+](=O)[O-])s2)n1-c1ccc2c(c1)OCCO2 + Cn1sc(=O)n(Cc2ccccc2)c1=O [TDZD-8] (first compound 0.2 µM, partner dose 0.4 µM)",95.5%,93%,104%,104%,90.7%,74.1%,,,81.2%,90.9%
"O=C(O)c1ccc(-c2c[nH]c3ncc(-c4ccccc4)cc23)cc1C1CCCC1 + CCN(CC)CCCCNc1ncc2cc(-c3cc(OC)cc(OC)c3)c(NC(=O)NC(C)(C)C)nc2n1 [PD173074] (first compound 0.16 µM, partner dose 0.1 µM)",92.4%,82.3%,111%,117%,90.3%,110%,95.2%,84.7%,103%,
"O=C(O)c1ccc(-c2c[nH]c3ncc(-c4ccccc4)cc23)cc1C1CCCC1 + Oc1nc(-c2ccc(C(F)(F)F)cc2)nc2c1CSCC2 [XAV939] (first compound 0.16 µM, partner dose 2 µM)",91.7%,83.8%,79.3%,105%,80.5%,105%,76.5%,74.8%,85.1%,
"O=C(O)c1ccc(-c2c[nH]c3ncc(-c4ccccc4)cc23)cc1C1CCCC1 + CCc1ccc(CCOc2ccc(CC3SC(=O)NC3=O)cc2)nc1 [pioglitazone] (first compound 0.16 µM, partner dose 2 µM)",90.4%,89%,92.5%,98.9%,86.1%,97.2%,80.6%,92.9%,82.8%,
"O=C(Nc1cccc(Cl)c1)Nc1ncc(CCNc2ncnc3ccsc23)s1 + COc1ccc(COc2ccc(Cc3cnc(N)nc3N)cc2OC)cc1 [GW2580] (first compound 0.0008 µM, partner dose 1 µM)",105%,110%,88.8%,93.1%,108%,86.8%,93.9%,99.2%,89.7%,
"O=C(O)c1ccc(-c2c[nH]c3ncc(-c4ccccc4)cc23)cc1C1CCCC1 + COc1ccc(-c2ccc3c(N4CCOCC4)nc(N4C[C@@H](C)O[C@@H](C)C4)nc3n2)cc1CO [KU0063794] (first compound 0.16 µM, partner dose 0.02 µM)",92.9%,84.4%,87.1%,88.2%,70.8%,90.5%,98.8%,59.1%,84.4%,
"COc1cc(Nc2ncc(F)c(Nc3ccc4c(n3)NC(=O)C(C)(C)O4)n2)cc(OC)c1OC [Tamatinib] + Cc1cc([N+](=O)[O-])ccc1NS(=O)(=O)c1cc(Cl)ccc1Cl [FH535] (first compound 0.4 µM, partner dose 1 µM)",84.4%,84.1%,88.1%,83.7%,78.2%,71.9%,83.9%,64.1%,75.9%,
"CC1(C)NC(=O)N(c2ccc([N+](=O)[O-])c(C(F)(F)F)c2)C1=O [nilutamide] + Cc1cc([N+](=O)[O-])ccc1NS(=O)(=O)c1cc(Cl)ccc1Cl [FH535] (first compound 1 µM, partner dose 1 µM)",93.6%,95.6%,123%,85.3%,84.6%,110%,81.2%,97.9%,90.5%,
"COc1cc(Nc2ncc(F)c(Nc3ccc4c(n3)NC(=O)C(C)(C)O4)n2)cc(OC)c1OC [Tamatinib] + Cn1cc(/C=C2\C(=O)Nc3cccnc32)c2ccccc21 [GW441756] (first compound 0.4 µM, partner dose 0.4 µM)",89.3%,89%,78.1%,108%,74.6%,83.9%,83.6%,77.9%,77.7%,
"O=C(Nc1cccc(Cl)c1)Nc1ncc(CCNc2ncnc3ccsc23)s1 + Oc1nc(-c2ccc(C(F)(F)F)cc2)nc2c1CSCC2 [XAV939] (first compound 0.0008 µM, partner dose 2 µM)",93.3%,100%,88.7%,105%,80.2%,114%,85.9%,73.3%,108%,
"CC1(C)NC(=O)N(c2ccc([N+](=O)[O-])c(C(F)(F)F)c2)C1=O [nilutamide] + COc1ccc(-c2ccc3c(N4CCOCC4)nc(N4C[C@@H](C)O[C@@H](C)C4)nc3n2)cc1CO [KU0063794] (first compound 1 µM, partner dose 0.02 µM)",96.9%,109%,99.1%,94.9%,91.2%,105%,108%,122%,111%,
"O=C(O)c1ccc(-c2c[nH]c3ncc(-c4ccccc4)cc23)cc1C1CCCC1 + O=S(=O)(c1ccccc1)N(CC(F)(F)F)c1ccc(C(O)(C(F)(F)F)C(F)(F)F)cc1 [T0901317] (first compound 0.16 µM, partner dose 1.4 µM)",95.2%,85%,106%,101%,92.3%,101%,92.5%,115%,87.9%,
"COc1cc(Nc2ncc(F)c(Nc3ccc4c(n3)NC(=O)C(C)(C)O4)n2)cc(OC)c1OC [Tamatinib] + O=C1NC(=O)/C(=C/c2ccc(-c3ccc(F)cc3O)o2)S1 [AS252424] (first compound 0.4 µM, partner dose 1 µM)",86%,79.6%,93.7%,100%,87%,83.4%,85.4%,56.8%,75.6%,
"O=C(O)c1ccc(-c2c[nH]c3ncc(-c4ccccc4)cc23)cc1C1CCCC1 + N#Cc1c(O)c2c(-c3ccc(-c4ccccc4O)cc3)csc2[nH]c1=O [A769662] (first compound 0.16 µM, partner dose 2 µM)",93.9%,95%,90.9%,111%,78.7%,109%,102%,109%,80.5%,
"C[C@@H]1CCN(C(=O)CC#N)C[C@@H]1N(C)c1ncnc2[nH]ccc12 + O=C1NC(=O)/C(=C/c2ccc(-c3ccc(F)cc3O)o2)S1 [AS252424] (first compound 1 µM, partner dose 1 µM)",98.6%,78.6%,99.9%,116%,92%,97.1%,99.2%,104%,106%,
"O=C(O)c1ccc(-c2c[nH]c3ncc(-c4ccccc4)cc23)cc1C1CCCC1 + COc1ccc2c(c1)CCC1C2CCC2(C)C(NCCCCCCN3C(=O)C=CC3=O)CCC12 [U73122] (first compound 0.16 µM, partner dose 0.4 µM)",93.7%,99%,88.8%,93%,85.9%,91.6%,85.5%,108%,97.2%,
"Cn1cncc1[C@@](N)(c1ccc(Cl)cc1)c1ccc2c(c1)c(-c1cccc(Cl)c1)cc(=O)n2C [tipifarnib] + O=C(O)C(=O)Nc1sc2c(c1C(=O)O)CCNC2 [TCS401] (first compound 0.01 µM, partner dose 1.66667 µM)",95%,90.2%,104%,445%,78.5%,108%,108%,91.5%,70.2%,
"CC1(C)NC(=O)N(c2ccc([N+](=O)[O-])c(C(F)(F)F)c2)C1=O [nilutamide] + CCCCCCCCCCCC1=C(O)C(=O)C=C(O)C1=O [Embelin] (first compound 1 µM, partner dose 1.2 µM)",101%,105%,102%,126%,89.1%,117%,113%,103%,114%,
"Cn1cncc1[C@@](N)(c1ccc(Cl)cc1)c1ccc2c(c1)c(-c1cccc(Cl)c1)cc(=O)n2C [tipifarnib] + COc1cc(N2CCC(N3CCN(C)CC3)CC2)ccc1Nc1ncc(Cl)c(Nc2ccccc2S(=O)(=O)C(C)C)n1 [NVP-TAE684] (first compound 0.01 µM, partner dose 0.08 µM)",104%,79.1%,86.2%,116%,87%,114%,88.4%,64.9%,68.5%,
"COc1cc(Nc2ncc(F)c(Nc3ccc4c(n3)NC(=O)C(C)(C)O4)n2)cc(OC)c1OC [Tamatinib] + CCc1ccc(CCOc2ccc(CC3SC(=O)NC3=O)cc2)nc1 [pioglitazone] (first compound 0.4 µM, partner dose 2 µM)",89.9%,101%,90.5%,114%,93.4%,108%,96.7%,90.2%,85%,
"Cn1cncc1[C@@](N)(c1ccc(Cl)cc1)c1ccc2c(c1)c(-c1cccc(Cl)c1)cc(=O)n2C [tipifarnib] + Oc1cc(-c2nc(-c3ccccc3)[nH]c2-c2ccncc2)ccc1Cl [L779450] (first compound 0.01 µM, partner dose 0.2 µM)",79.4%,89.6%,82.2%,81.1%,84.7%,94.7%,93.9%,70.1%,55.7%,
"CC1(C)NC(=O)N(c2ccc([N+](=O)[O-])c(C(F)(F)F)c2)C1=O [nilutamide] + COc1ccc2c(c1)CCC1C2CCC2(C)C(NCCCCCCN3C(=O)C=CC3=O)CCC12 [U73122] (first compound 1 µM, partner dose 0.4 µM)",99%,97.2%,95.2%,96%,103%,95.4%,89.7%,103%,102%,
